B1: LINE1-mini (parent)
chain: GGCAGAGCUCAACACAGCGUGGCAAAGUGGCUGUGGCUAGACUGCC

Read counts are not given, so values of variants with three or more changes are uncertain.

In this data set the parent is B1. The experiment in a line: self-cleavage, relative activity (ratio to wild type); higher = more cleavage; in vitro, sequencing; the parent is a self-cleaving ribozyme.
Take GGCAGAGCUCAACCCAGCGUGGCAAAGUGGCUGUGGUCAGACAGCC [A14C C37U U38C U43A]: the self-cleavage came to 0.02.
In the case of GGCAGAGCUCAACCCAACGUGGCAAAGUGGCUGUGGCCAGACUGCC [A14C G17A U38C], the self-cleavage came out at 0.01.
The same measure for GGCAGAGCUCAACCGAGCGUGGCAUAGUGUCUGUGGCUAGAUUGCC [A14C C15G A25U G30U C42U]: 0.01; for GGCAGAGCUCAACCCAUCGUGGCAAAGUGGAUGUGGCUAGACUGCC [A14C G17U C31A]: 0.31; for GGCAGAGCUCAACCUAGCGUAGCAAAGUGGCUGUGGCUAGACUGCC [A14C C15U G21A]: 0.05.
Consider GGCAGAGCUCAACCCAGCGUGGCUAAGUGGCUGUAGCUAGACUGCC [A14C A24U G35A], for which the self-cleavage was found to be 0.05.
As to GGCAGAGCUCAACCCAUCGUGGCAAAGUGGCUGUGGCUAGUCUACU [A14C G17U A41U G44A C46U], the self-cleavage was determined as 0.03.
As for GGCAGAGCUCAACCCAGCGUGGAAAAGUGGCUGUGGCUAGACAGCC [A14C C23A U43A], the self-cleavage was determined as 0.03.
Take GGCAGAGCUCAACCCAGGGUGGCAAAGUGGCUUUGGCUAGACUGCC [A14C C18G G33U]: the self-cleavage was determined as 0.03.
Regarding GGCAGAGCUCAACCAAGCGUGGCAAAGUGGUUGUGGCUAGUCUGCC [A14C C15A C31U A41U], the self-cleavage was 0.01.
With GGCAGAGCUCAACCCAGGGUGGCAAAGUGGAUGUGGCUAGAUUGCC [A14C C18G C31A C42U], the self-cleavage came to 0.08.
Under GGCAGAGCUCAACCCAUCGUGGCUAAGUGGCUGUGUCUAGACUGCC [A14C G17U A24U G36U] stands 0.04; under GGCAGAGCUCAACCCAGCGUUACAAAGUGGCUGUGGCUAGACUGCC [A14C G21U G22A], 0.09.
On to GGCAGAGCUCAACCCAGCUUGGCAAAGUGGAUGUGGCUAGACUGCC [A14C G19U C31A], for which the self-cleavage came to 0.01.
GGCAGAGCUCAACCCAUCGUGGCAAAGUGUCUGUGGCUAGACUGCC [A14C G17U G30U]: the self-cleavage came to 0.05.
The same measure for GGCAGAGCUCAACCCAACGUGGCAAAGUGGUUGUGGCUAGACUGCC [A14C G17A C31U]: 0.01; for GGCAGAGCUCAACCCAGCCUGGCAAAGUGGCUGUGGCGAGCCUGCC [A14C G19C U38G A41C]: 0.
Take GGCAGAGCUCAACCCAACGUGGCAAAGUGGCUGUUGGUAGACUGCC [A14C G17A G35U C37G]: the self-cleavage stood at 0.04.
Under GGCAGAGCUCAACCCAGGGGGGCCAAGUGGCUGUGGCUACACUGCC [A14C C18G U20G A24C G40C] stands 0.01; under GGCAGAGCUCAACCCAGCGUCGCAAAGUGGCUGUGGCUAGAUUGCC [A14C G21C C42U], 0.1.
On to GGCAGAGCUCAACCCAGCCUGGCAAAGUGGCUGUGGCUUGACUGCC [A14C G19C A39U], for which the self-cleavage came out at 0.03.
In the case of GGCAGAGCUCAACCCAGCAUAGUAAAGUGGCUGUGGCUAUACUGCC [A14C G19A G21A C23U G40U], the self-cleavage worked out at 0.18.
The same measure for GGCAGAGCUCAACCCAUCGUGGCAAAGUGGCUGUGGACAGACUGCC [A14C G17U C37A U38C]: 0.02; for GGCAGAGCUCAACCCAGCCUUGCAAAGUGGCUCUGGCUAGAGUGCC [A14C G19C G21U G33C C42G]: 0.02.
On to GGCAGAGCUCAACCCAGCCUGGCAAAGGGGCCGUGGCUUGACUGCU [A14C G19C U28G U32C A39U C46U], for which the self-cleavage is 0.04.
For GGCAGAGCUCAACCCAGCGUGACAAAAUGGCUAUGGCUAGACUGCC [A14C G22A G27A G33A], the self-cleavage came out at 0.06.
The same measure for GGCAGAGCUCAACCCAUCGCUGCAAAGUGGCUGUGGCUAGACUGAC [A14C G17U U20C G21U C45A]: 0.14; for GGCAGAGCUCAACCGAGCGUGGCAAAGUGGCUGUGGCGAGACUGCC [A14C C15G U38G]: 0.
Consider GGCAGAGCUCAACCCAGCGUGACAAAGUGGCUGUGGAUUGAGUGCC [A14C G22A C37A A39U C42G], for which the self-cleavage stood at 0.
With GGCAGAGCUCAACCCAGCGUGGCAUAGUGGCCGUGUCUAGACUGGU [A14C A25U U32C G36U C45G C46U], the self-cleavage was determined as 0.02.
In the case of GGCAGAGCUCAACCCAGAGUGGCAAAGUGGCUGUGGCUAGACCGCC [A14C C18A U43C], the self-cleavage was found to be 0.02.
For the variant GGCAGAGCUCAACCCAGGGUGGUAAAGUGGCUAUGGCUAGUCUGCC [A14C C18G C23U G33A A41U], the self-cleavage came to 0.23.
For the variant GGCAGAGCUCAACCUAGCGUGCCAAAGUGGCUGUGGUUAGACUGCC [A14C C15U G22C C37U], the self-cleavage worked out at 0.03.
In the case of GGCAGAGCUCAACCCAGCGUGGCACAGUAGCUGUGGUUAGACUGCC [A14C A25C G29A C37U], the self-cleavage was determined as 0.
For GGCAGAGCUCAACCCAGCGUGGCAGCGUGGCCGUGGCUAGACUGCC [A14C A25G A26C U32C], the self-cleavage was 0.01.
Take GGCAGAGCUCAACCCAUCGUGGCAAAGUGGCUGUGGCUACACUGCC [A14C G17U G40C]: the self-cleavage stood at 0.
In the case of GGCAGAGCUCAACCCAGCGUCGCCAAGUGGCUGUGGCUAGACUGCC [A14C G21C A24C], the self-cleavage was found to be 0.01.
For GGCAGAGCUCAACCCAGCGUCGCUAAGUGGCUGUGGCUAGACUGCC [A14C G21C A24U], the self-cleavage amounted to 0.06.
As for GGCAGAGCUCAACCCACCGCGGCAAAGUGGCCGUGGCUAGACUGCC [A14C G17C U20C U32C], the self-cleavage was determined as 0.05.
As for GGCAGAGCUCAACCUAGCGUGGCAAAGAGUCUGUGGCUAGACUGCC [A14C C15U U28A G30U], the self-cleavage was 0.06.
As to GGCAGAGCUCAACCCAGCGUGUCAACGUUGCUGUGGCUAGACAGCC [A14C G22U A26C G29U U43A], the self-cleavage turned out to be 0.66.
For the variant GGCAGAGCUCAACCCAGCGUGGAAAAGUGGCUGUGGCGAGACUGCC [A14C C23A U38G], the self-cleavage was 0.02.
Turning to GGCAGAGCUCAACCCAGCGUGGCAAGGUGGCUGUGGCGAGACUGCC [A14C A26G U38G], the self-cleavage came to 0.
For GGCAGAGCUCAACCCAGCGUGGCAAAGUGGAUGUGGUUAGACCGCC [A14C C31A C37U U43C], the self-cleavage came to 0.01.
Consider GGCAGAGCUCAACCUGGCGUGGCAAAGUGGCUGUGGCUAGACUGCC [A14C C15U A16G], for which the self-cleavage came to 0.05.
Regarding GGCAGAGCUCAACCCAGGGUGGCAAAGUGGCUGUGGCUAGACUGCG [A14C C18G C46G], the self-cleavage was 0.02.
For GGCAGAGCUCAACCCAGCGUGGCAAUGUGGCUGUGUCUAGACUGCC [A14C A26U G36U], the self-cleavage is 0.03.
Take GGCAGAGCUCAACCAAGCGUCGCAAAGUGGCUAUGGCUAGACUGCC [A14C C15A G21C G33A]: the self-cleavage is 0.01.
GGCAGAGCUCAACCCAGCGUGGGAAAGUGGCUGUGGCUAGAAUGCC [A14C C23G C42A]: the self-cleavage turned out to be 0.02.
In the case of GGCAGAGCUCAACCCAGCAGUGCAAAGUGGCUGUGGCUAGACUGCG [A14C G19A U20G G21U C46G], the self-cleavage was found to be 0.03.
GGCAGAGCUCAACCCACCGUGGCAAAGUGGCUGUGACUAGACUGCC [A14C G17C G36A]: the self-cleavage came out at 0.09.
On to GGCAGAGCUCAACCCAGCAUGGCAAAGUGGCUCUGGCUAGACUGCC [A14C G19A G33C], for which the self-cleavage was determined as 0.02.
As for GGCAGAGCUCAACCCAGCCUCGCAAAGUGGCUGUGGCUAGACUGCC [A14C G19C G21C], the self-cleavage is 0.01.
Under GGCAGAGCUCAACCCACCGUGGCAAAGUGGCUGGGGCUAGACUGCC [A14C G17C U34G] stands 0.13; under GGCAGAGCUCAACCCAGCGUGGAAAAGUGGCUGUGGCUAGACUUCC [A14C C23A G44U], 0.12.
Under GGCAGAGCUCAACCCAGCGUGGCACAGUGGAUGUGGCUAGACUGCC [A14C A25C C31A] stands 0.05.
